IC50 is the fitted dose that halves viability relative to control wells, and lower means more sensitive; a limit (>, <) means that the fit lies beyond the doses tested. For AUC the same curve is integrated over the 256-fold range of doses and scaled to a fraction: 1 means no effect, lower means more sensitive. For some of these results: A top dose marked as inferred was derived from the fitted curves, not read from the paper. For some of these results: Drugs with an entry number were screened twice under separate entries, and the two screens often disagree.
Key:
Experiment in all cases: Viability of human cancer cell lines after 72 h of drug (GDSC screen)
SNX-2112 = compound: CC1(C)CC(=O)c2c(C(F)(F)F)nn(-c3ccc(C(N)=O)c(N[C@H]4CC[C@H](O)CC4)c3)c2C1 [SNX-2112]; details: top dose 2.56 µM
Procedure: (§1)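 Human cancer cell lines in 384-well plates, medium with 10% serum, drug for 72 h over a 256-fold dose range (nine 2-fold or five 4-fold steps up to the top dose). Adherent lines were fixed and stained with the nucleic acid dye Syto60, suspension lines read with resazurin; signal relative to control wells, capped at 0 and 100%. One two-parameter sigmoid per drug and line, fitted in a mixed model over all curves with the slope shared within a line.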

Vinblastine = compound: CC[C@]1(O)C[C@@H]2CN(CCc3c([nH]c4ccccc34)[C@@](C(=O)OC)(c3cc4c(cc3OC)N(C)[C@H]3[C@@](O)(C(=O)OC)[C@H](OC(C)=O)[C@]5(CC)C=CCN6CC[C@]43[C@@H]65)C2)C1 [Vinblastine]; details: top dose 0.1 µM; top dose inferred
Procedure: as §1

Afatinib = compound: CN(C)C/C=C/C(=O)Nc1cc2c(Nc3ccc(F)c(Cl)c3)ncnc2cc1O[C@H]1CCOC1 [Afatinib]
Procedure: as §1

PF-562271 = compound: CN(c1ncccc1CNc1nc(Nc2ccc3c(c2)CC(=O)N3)ncc1C(F)(F)F)S(C)(=O)=O [PF-562271]; details: top dose 2.56 µM; top dose inferred
Procedure: as §1

XMD13-2 = compound: O=C(NC1CC1)c1cccc(-c2ccc3c(NC(=O)C4CC4)n[nH]c3c2)c1 [XMD13-2]; details: top dose 10.24 µM; top dose inferred
Procedure: as §1

[1] = top dose 0.5 µM, screen: GDSC drug entry 1032
[2] = top dose 10 µM, screen: GDSC drug entry 1377, top dose inferred

Row | Cell Line | AUC (SNX-2112) | IC50 (SNX-2112) [nM] | AUC (Vinblastine) | IC50 (Vinblastine) [nM] | AUC (Afatinib; [1]) | IC50 (Afatinib; [1]) [nM] | AUC (Afatinib; [2]) | IC50 (Afatinib; [2]) [nM] | AUC (PF-562271) | IC50 (PF-562271) [nM] | AUC (XMD13-2) | IC50 (XMD13-2) [nM]
1 | TOV-112D (ovary, adherent) | 0.455 | 121 | 0.524 | 7.26 | 0.925 | > 500 | 0.736 | 2960 | 0.859 | 2150 | 0.845 | 7490
2 | SW1990 (pancreas, adherent) | 0.985 | > 2560 | 0.774 | 46.2 | 0.971 | > 500 | 0.829 | 7780 | 0.927 | > 2560 | 0.978 | > 10200
3 | NCI-H1563 (lung adenocarcinoma, adherent) | 0.985 | > 2560 | 0.652 | 18 | 0.968 | > 500 | 0.934 | > 10000 | 0.985 | > 2560 | 0.97 | > 10200
4 | MOG-G-UVW (glioma, adherent) | 0.755 | 847 | 0.233 | 1.08 | 0.985 | > 500 | 0.905 | > 10000 | 0.91 | > 2560 | 0.886 | > 10200
5 | IMR-5 (neuroblastoma, adherent) | 0.489 | 150 | 0.831 | 49.8 | 0.982 | > 500 | 0.944 | > 10000 | 0.897 | 2270 | 0.89 | 8520
6 | KMS-12-BM (myeloma, suspension) | 0.4 | 89.8 | 0.36 | 2.77 | 0.991 | > 500 |  |  | 0.937 | > 2560 | 0.579 | 1010
7 | MS-1 (small cell lung carcinoma, suspension) | 0.294 | 45.3 | 0.847 | 62.2 | 0.988 | > 500 | 0.991 | > 10000 | 0.95 | > 2560 | 0.871 | 7930
8 | KARPAS-299 (anaplastic large cell lymphoma, suspension) | 0.504 | 163 | 0.368 | 2.9 | 0.992 | > 500 | 0.982 | > 10000 | 0.987 | > 2560 | 0.971 | > 10200
9 | ES-2 (ovary, adherent) | 0.44 | 112 | 0.717 | 23.5 | 0.989 | > 500 | 0.99 | > 10000 | 0.991 | > 2560 | 0.984 | > 10200
10 | H2595 (mesothelioma, adherent) | 0.969 | > 2560 | 0.597 | 12.8 | 0.956 | > 500 | 0.954 | > 10000 | 0.915 | > 2560 | 0.926 | > 10200
11 | COLO-684 (endometrium, suspension) | 0.472 | 133 | 0.546 | 8.46 | 0.984 | > 500 | 0.983 | > 10000 | 0.927 | > 2560 | 0.898 | > 10200
12 | MONO-MAC-6 (acute myeloid leukaemia, suspension) | 0.22 | 23 | 0.49 | 5.88 | 0.972 | > 500 | 0.924 | > 10000 | 0.798 | 1300 | 0.926 | > 10200
13 | NCI-SNU-5 (stomach, suspension) | 0.976 | > 2560 | 0.719 | 26.3 | 0.989 | > 500 | 0.963 | > 10000 | 0.989 | > 2560 | 0.989 | > 10200
14 | P30-OHK (lymphoblastic leukaemia, suspension) | 0.276 | 42.1 | 0.549 | 8.3 | 0.982 | > 500 | 0.975 | > 10000 | 0.912 | > 2560 | 0.859 | 6300
15 | PANC-03-27 (pancreas, adherent) | 0.474 | 137 | 0.472 | 5.26 | 0.929 | > 500 | 0.892 | > 10000 | 0.931 | > 2560 | 0.947 | > 10200
16 | MHH-PREB-1 (B-cell leukaemia, suspension) | 0.298 | 46.4 | 0.369 | 2.84 | 0.983 | > 500 | 0.939 | > 10000 | 0.953 | > 2560 | 0.902 | > 10200
17 | RH-41 (rhabdomyosarcoma, adherent) | 0.855 | 1530 | 0.427 | 4.09 | 0.972 | > 500 | 0.976 | > 10000 | 0.979 | > 2560 | 0.923 | > 10200
18 | NCI-H28 (mesothelioma, adherent) | 0.924 | > 2560 | 0.661 | 20.3 | 0.903 | > 500 | 0.819 | 8140 | 0.902 | > 2560 | 0.968 | > 10200
19 | KYSE-450 (oesophagus, adherent) | 0.276 | 38.7 | 0.592 | 11 | 0.695 | 106 | 0.226 | 106 | 0.919 | > 2560 | 0.811 | 5060
20 | KELLY (neuroblastoma, adherent) | 0.823 | 1330 | 0.687 | 19.7 | 0.957 | > 500 | 0.987 | > 10000 | 0.961 | > 2560 | 0.969 | > 10200
21 | EW-11 (Ewing sarcoma, adherent) | 0.549 | 226 | 0.542 | 8.41 | 0.952 | > 500 | 0.89 | > 10000 | 0.933 | > 2560 | 0.852 | > 10200

Row | Cell Line | AUC (SNX-2112) | IC50 (SNX-2112) [nM] | AUC (Vinblastine) | IC50 (Vinblastine) [nM] | AUC (Afatinib; [1]) | IC50 (Afatinib; [1]) [nM] | AUC (Afatinib; [2]) | IC50 (Afatinib; [2]) [nM] | AUC (PF-562271) | IC50 (PF-562271) [nM] | AUC (XMD13-2) | IC50 (XMD13-2) [nM]
22 | KYM-1 (rhabdomyosarcoma, adherent) | 0.868 | 1780 | 0.432 | 4.2 | 0.961 | > 500 | 0.981 | > 10000 | 0.982 | > 2560 | 0.952 | > 10200
23 | NCI-H1435 (lung adenocarcinoma, semi-adherent) | 0.945 | > 2560 | 0.965 | > 100 | 0.948 | > 500 | 0.991 | > 10000 | 0.99 | > 2560 | 0.993 | > 10200
24 | KYSE-510 (oesophagus, adherent) | 0.717 | 579 | 0.447 | 4.6 | 0.986 | > 500 | 0.926 | > 10000 | 0.859 | 1570 | 0.973 | > 10200
25 | NCI-H1792 (lung adenocarcinoma, adherent) | 0.764 | 845 | 0.332 | 2.24 | 0.99 | > 500 | 0.963 | > 10000 | 0.943 | > 2560 | 0.95 | > 10200
26 | SCH (stomach, adherent) | 0.988 | > 2560 | 0.74 | 32.4 | 0.982 | > 500 | 0.971 | > 10000 | 0.987 | > 2560 | 0.988 | > 10200
27 | CHL-1 (melanoma, adherent) | 0.372 | 72.4 | 0.482 | 5.59 | 0.446 | 22.5 | 0.252 | 128 | 0.869 | 2130 | 0.905 | > 10200
28 | NCI-H1770 (non-small cell lung carcinoma, suspension) | 0.358 | 68.6 | 0.9 | > 100 | 0.992 | > 500 | 0.958 | > 10000 | 0.921 | > 2560 | 0.978 | > 10200
29 | A101D (melanoma, adherent) | 0.878 | > 2560 | 0.553 | 9.04 | 0.975 | > 500 | 0.966 | > 10000 | 0.88 | > 2560 | 0.981 | > 10200
30 | MN-60 (B-cell leukaemia, suspension) | 0.583 | 273 | 0.924 | > 100 | 0.987 | > 500 | 0.986 | > 10000 | 0.961 | > 2560 | 0.951 | > 10200
31 | WM278 (melanoma, adherent) | 0.305 | 42.1 | 0.51 | 6.67 | 0.978 | > 500 | 0.982 | > 10000 | 0.799 | 1410 | 0.974 | > 10200
32 | RC-K8 (B-cell lymphoma, suspension) | 0.605 | 297 | 0.933 | > 100 | 0.993 | > 500 | 0.973 | > 10000 | 0.985 | > 2560 | 0.993 | > 10200
33 | UACC-893 (breast, adherent) | 0.828 | 2360 | 0.763 | 48.2 | 0.667 | 107 | 0.501 | 629 | 0.981 | > 2560 | 0.941 | > 10200
34 | MHH-ES-1 (Ewing sarcoma, adherent) | 0.237 | 28.1 | 0.4 | 3.34 | 0.975 | > 500 | 0.95 | > 10000 | 0.85 | 1910 | 0.795 | 4690
35 | NCI-H1304 (small cell lung carcinoma, suspension) | 0.925 | > 2560 | 0.967 | > 100 | 0.988 | > 500 | 0.953 | > 10000 | 0.937 | > 2560 | 0.925 | > 10200
36 | NCI-H524 (small cell lung carcinoma, suspension) | 0.99 | > 2560 | 0.495 | 6.08 | 0.99 | > 500 | 0.99 | > 10000 | 0.978 | > 2560 | 0.795 | 4180
37 | H4 (glioma, adherent) | 0.548 | 216 | 0.515 | 6.87 | 0.986 | > 500 | 0.949 | > 10000 | 0.863 | 2170 | 0.908 | > 10200
38 | KE-37 (lymphoblastic leukaemia, suspension) | 0.171 | 23.2 | 0.448 | 4.68 | 0.992 | > 500 | 0.994 | > 10000 | 0.916 | 2190 | 0.866 | 5770
39 | AM-38 (glioma, semi-adherent) | 0.398 | 83.3 | 0.73 | 28.7 | 0.988 | > 500 | 0.987 | > 10000 | 0.944 | > 2560 | 0.944 | > 10200
40 | LU-139 (small cell lung carcinoma, suspension) | 0.805 | 1750 | 0.558 | 9.44 | 0.714 | 151 | 0.943 | > 10000 | 0.972 | > 2560 | 0.785 | 5750
41 | EJM (lymphoid neoplasm, semi-adherent) | 0.397 | 87.4 | 0.516 | 6.85 | 0.991 | > 500 | 0.989 | > 10000 | 0.981 | > 2560 | 0.884 | 8030
42 | EM-2 (chronic myeloid leukaemia, suspension) | 0.339 | 53.6 | 0.43 | 3.91 | 0.973 | > 500 | 0.946 | > 10000 | 0.917 | > 2560 | 0.865 | > 10200

— the supplement of paper PMC4967469
